This note sets out measurements from PubChem BioAssay (NCI).

SMILES strings stand for the structures.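 Cells were grown in 96-well plates and exposed to each compound for 48 hours at five concentrations; endpoints were interpolated linearly between bracketing concentrations, or set to the highest concentration if not reached. GI50 = concentration required for 50% inhibition of growth. TGI is the concentration that stops growth completely.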

The assay has as its system NCI-H322M lung. As to the kind of experiment: growth of human tumour cells (NCI), 48 h.
Turning to `COc1ccc(C[C@@H]2NC[C@@H](O)[C@@H]2OC(C)=O)cc1`, the GI50 is 1.24 µM.
The compound `N#CC(C#N)=C(N)/C(C#N)=C/c1ccc2ccccc2n1` came in with a TGI above 100 µM.
In the case of `C[C@]12Cc3cnn(-c4ccc(F)cc4)c3NC1CC[C@@H]1C2CC[C@@]2(C)C1CC[C@@H]2O` (some centres not stated), the TGI came to 29.5 µM.
The compound `O=S(=O)(SCc1ccccc1)C(c1ccccc1)c1ccccc1` came in with a TGI above 100 µM.
Turning to `O=[N+]([O-])c1ccccc1NC1c2ccccc2Oc2ccccc21`, the GI50 is above 100 µM and the TGI was above 100 µM.
Consider `CCN(CC)C(=S)SS(=O)(=O)c1ccc(Cl)cc1`, for which the TGI was above 100 µM.
Turning to `CN(C)c1ncc(-c2ccc(C(F)(F)F)cc2)c(NC2CCCCCC2)n1`, the GI50 is 32.8 µM and the TGI was above 100 µM.
Consider `CC1=CCC2C3(C)CCC2(C(C)C)C1C3` (configuration not stated) (tested in a mixture with another compound), for which the TGI was above 100 µM.
`O=[N+]([O-])c1ccc(/C=N/Nc2nnc3c4ccccc4c4ncccc4c3n2)o1` came in with a TGI above 10 µM.
On the same count and under the same terms, the value for `CCOC(=O)Cc1csc2[n+]1C(=O)/C(=C\c1cccc(Cl)c1Cl)S2` was above 100 µM; that for `Cc1nc(-c2ccccc2)cc2c1c(=O)oc1ccccc12` was above 100 µM; that for `N#CC(=C1CCCCC1)c1nc2ccccc2o1` was above 100 µM.
`Cc1nc2c(nc1C)-c1c(c3c(n1C)C(=O)CCC3)C(=O)C2=O` came in with a TGI of 3.15 µM.
In turn, `CCCCCCCC/C=C\CCCCCCCC(=O)O` came in with a TGI above 500 µM.
On to `NC(=O)NC(=O)c1cccc(CNc2ccc(C(=O)N[C@@H](CCC(=O)O)C(=O)O)cc2)n1`, for which the TGI is above 100 µM.
`[N-]=[N+]=Nc1c(C=O)c(=O)n(-c2ccccc2)c2ccccc12` displayed a TGI above 100 µM.
`c1ccc(C2=NOC3(c4ccccc4)SC4CCCCC4CN23)cc1` (configuration not stated) came in with a TGI above 100 µM.
`CN(CC#N)C1CCCC[C@H]1O` (some centres not stated): the TGI was above 100 µM.
The compound `O=[N+]([O-])/C=C/c1cc2ccccc2[nH]1` registered a TGI of 31.1 µM.
With `COc1ccc(/C=C2\CC(C)CC3C2=NN(C(C)=O)C3c2ccc(OC)cc2)cc1` (configuration not stated), the GI50 was 27.1 µM and the TGI was above 100 µM.
With `OC[C@]1(n2nc3ccccc3n2)OC[C@@H]1c1ccccc1`, the TGI is above 100 µM.
The same measure, in the same setting: the value for `CCN(CC)CCN1C(=O)c2c(c(-c3ccccc3)c3ccccc3c2-c2ccccc2)C1=O` was above 100 µM.
`O=C1C=CC2=[N+]([O-])C(c3ccccc3)(c3ccccc3)C(=Nc3ccccc3)C2=C1` had a TGI of 19.8 µM.
Same read-out and setting: the value for `C/C=C\C(CC(=O)NCCC1CN(S(=O)(=O)C(F)(F)F)c2ccccc21)CC(=O)OC` (configuration not stated) was above 100 µM.
As to `CN1CCN(c2cc(C(=O)Nc3cc4cc(-c5cnn(C)c5)ccc4cn3)ccn2)CC1`, the GI50 is 0.146 µM and the TGI was 11.9 µM.
Compound `O=C(NNC(c1ccccc1)C(F)(F)F)c1ccncc1` (configuration not stated) showed a TGI above 100 µM.
For the compound `CCCCCCCCCCCCCCCC[N+](C)(CCO)Cc1cnc[nH]1` (configuration not stated), the GI50 was 3.18 µM and the TGI came out at 33.2 µM.
For the compound `Oc1ccccc1C=Nc1ccc(-c2nc3ccccc3[nH]2)cc1`, the TGI was above 100 µM.
Turning to `Fc1ccc(-c2ncn(C3CCNCC3)c2-c2ccnc(Oc3ccc(F)c(F)c3)n2)cc1`, the GI50 was 24.7 µM and the TGI was above 25 µM.
Take `COC(=O)C1c2c(c3ccccc3n2C(=O)OC)CCN2CCC1C(S(=O)(=O)c1ccccc1)C2=O` (configuration not stated): the TGI is above 100 µM.
`Cc1nc([C@H]2CC[C@H]3[C@@H]4CCC5=CC(=O)CC[C@]5(C)[C@H]4CC[C@]23C)cs1`: the GI50 is above 95.9 µM and the TGI is above 100 µM.
`COc1ccc(/C=C2\CCC(C)/C(=C\c3ccc(OC)c(OC)c3)C2=O)cc1OC` (configuration not stated) gave a TGI of 37.9 µM.
Compound `O=c1[nH]c2cc([N+](=O)[O-])ccc2nc1/C(=N/Nc1ccccc1)C(O)c1ccc(C(O)/C(=N\Nc2ccccc2)c2cnc3cc([N+](=O)[O-])ccc3n2)cc1` (configuration not stated) gave a TGI above 100 µM.
The compound `CN(CCO)c1nc(N)cc(=O)[nH]1` had a TGI above 100 µM.
`O=C(Nc1c(C(F)(F)F)cc(-c2ccccc2)[nH]c1=O)N1CCOCC1` returned a TGI above 100 µM.
